Laboratory results taken from patent publication US7592316B2, “Peptides as NS3-serine protease inhibitors of hepatitis C virus” (Schering Corporation, priority 2000, dated 2009).
*1 amine or outer side, *2 acyl side, *3 side chain or, on linkers, in order; H or OH if unused. Where a SMILES comes first, the peptide text is derived from it. [ ]: non-standard residue; d: D form. The star is where a group is joined. ξ: configuration not given here. Pro(3R,4S-CMe2) = CC1(C)[C@@H]2[C@@H](C(=O)O)NC[C@@H]21; Phenylacetyl(4-CF3) = O=C(Cc1ccc(C(F)(F)F)cc1)*; Propanoyl(3,3-Ph2) = O=C(CC(c1ccccc1)c1ccccc1)*; Phenylacetyl(4-Cl) = O=C(Cc1ccc(Cl)cc1)*; Phenylacetyl(4-Me) = Cc1ccc(CC(=O)*)cc1; Phenylacetyl(4-F) = O=C(Cc1ccc(F)cc1)*; Isobutyloxycarbonyl = CC(C)COC(=O)*; X8 = O=C(C(=O)[*:2])C(CC1CC1)N[*:1]; Hyp = O=C(O)[C@@H]1C[C@@H](O)CN1; X2 = CCCC(N[*:1])C(=O)C(=O)[*:2]; CH2CO2tBu = CC(C)(C)OC(=O)C*; Phg = N[C@H](C(=O)O)c1ccccc1; Tle = CC(C)(C)[C@H](N)C(=O)O; ξChg = NC(C(=O)O)C1CCCCC1; ξPhg = NC(C(=O)O)c1ccccc1; Carboxymethyl = O=C(O)C*; Boc = CC(C)(C)OC(=O)*; X57 = N#Cc1ccc(N*)cc1; ξNle = CCCCC(N)C(=O)O; ξPip = O=C(O)C1CCCCN1; CO = O=C([*:1])[*:2]; X106 = CN(C(C)(C)C)*; X88 = CC1(N*)CCCCC1; Bn = c1ccc(C*)cc1; tBu = CC(C)(C)*; OAll = C=CCO*

Molecular target: HCV NS3/NS4A protease (strain 1a) (Hepatitis C virus genotype 1a, UniProt P27958)
Test: biochemical
Settings: Compounds prepared by Solid Phase Synthesis, Table 3; read-out: Ki* CLASS

SMILES | Ki
CCCCC(NC(=O)CNC(=O)C(=O)C(CCC)NC(=O)[C@@H]1C[C@@H](OC(C)(C)C)CN1C(=O)C(NC(=O)Cc1ccc(C(F)(F)F)cc1)C1CCCCC1)C(N)=O (some centres unmarked) ({Phenylacetyl(4-CF3)}-[ξChg][Hyp](tBu)[X2]G[ξNle]-NH2) | 0.101 to 1 µM
CCCCC(NC(=O)CNC(=O)C(=O)C(CCC)NC(=O)[C@@H]1C[C@@H](OCC(=O)OC(C)(C)C)CN1C(=O)C(NC(=O)Cc1ccc(Cl)cc1)C1CCCCC1)C(N)=O (some centres unmarked) ({Phenylacetyl(4-Cl)}-[ξChg][Hyp](CH2CO2tBu)[X2]G[ξNle]-NH2) | > 1 µM
CCCCC(NC(=O)CNC(=O)C(=O)C(CCC)NC(=O)[C@@H]1C[C@@H](OCC(=O)OC(C)(C)C)CN1C(=O)C(NC(=O)Cc1ccc(F)cc1)C1CCCCC1)C(N)=O (some centres unmarked) ({Phenylacetyl(4-F)}-[ξChg][Hyp](CH2CO2tBu)[X2]G[ξNle]-NH2) | > 1 µM
CCCCC(NC(=O)CNC(=O)C(=O)C(CCC)NC(=O)[C@@H]1C[C@@H](OCC(=O)O)CN1C(=O)C(NC(=O)Cc1ccc(C)cc1)C1CCCCC1)C(N)=O (some centres unmarked) ({Phenylacetyl(4-Me)}-[ξChg][Hyp](Carboxymethyl)[X2]G[ξNle]-NH2) | > 1 µM
CCCCC(NC(=O)CNC(=O)C(=O)C(CCC)NC(=O)[C@@H]1C[C@@H](OCc2ccccc2)CN1C(=O)C(NC(=O)CC(c1ccccc1)c1ccccc1)C1CCCCC1)C(N)=O (some centres unmarked) ({Propanoyl(3,3-Ph2)}-[ξChg][Hyp](Bn)[X2]G[ξNle]-NH2) | > 1 µM

Same assay, conditions: HCV protease continuous assay results, Table 1; read-out: Ki* Range

SMILES | Ki
C=CCOC(=O)CNC(=O)C(=O)[C@H](CCC)NC(=O)[C@@H]1C[C@@H](OCC(=O)OC(C)(C)C)CN1C(=O)OCC1c2ccccc2-c2ccccc21 [Example 1] | > 1 µM
C=CCOC(=O)CNC(=O)C(=O)C(CCC)NC(=O)[C@@H]1CCCN1C(=O)c1ccc(N2CCN(C(=O)OC(C)(C)C)CC2)cc1 (some centres unmarked) [Example 2] | > 1 µM
C=CCOC(=O)CNC(=O)C(=O)C(CCC)NC(=O)[C@@H]1CCCN1C(=O)c1ccc(N2CCN(C(=O)[C@H](CCC(=O)OC(C)(C)C)NC(C)=O)CC2)cc1 (some centres unmarked) [Example 3] | > 1 µM
C=CCOC(=O)CNC(=O)C(=O)C(CCC)NC(=O)[C@@H]1CCCN1C(=O)c1ccc(N2CCNCC2)cc1 (some centres unmarked) [Example 4] | > 1 µM
C=CCOC(=O)CNC(=O)C(=O)C(CCC)NC(=O)[C@@H]1CCCN1C(=O)c1ccc(N2CCN(C(=O)[C@H](CCC(=O)O)NC(C)=O)CC2)cc1 (some centres unmarked) [Example 5] | > 1 µM
CCCC(NC(=O)[C@@H]1CCCN1C(=O)[C@@H](NC(=O)OCC(C)C)C(C)C)C(=O)C(=O)NCC(=O)N[C@@H](CC(=O)OC)C(=O)OC (some centres unmarked) [Example 11] (Isobutyloxycarbonyl-VP[X2]GD(OMe)-OMe) | > 1 µM
CCCC(NC(=O)[C@@H]1CCCN1C(=O)[C@@H](NC(=O)OCC(C)C)C(C)C)C(=O)C(=O)NCC(=O)N[C@@H](CCC(=O)OCC)C(=O)OCC (some centres unmarked) [Example 13] (Isobutyloxycarbonyl-VP[X2]GE(OEt)-OEt) | > 1 µM
CCCC(NC(=O)[C@@H]1CCCN1C(=O)[C@@H](NC(=O)OCC(C)C)C(C)C)C(=O)C(=O)NCC(=O)N1CCCCC1C(=O)OCC (some centres unmarked) [Example 14] (Isobutyloxycarbonyl-VP[X2]G[ξPip]-OEt) | > 1 µM
CCCC(NC(=O)[C@@H]1CCCN1C(=O)[C@@H](NC(=O)OCC(C)C)C(C)C)C(=O)C(=O)NCC(=O)N[C@H](C(=O)OC)[C@@H](C)CC (some centres unmarked) [Example 17] (Isobutyloxycarbonyl-VP[X2]GI-OMe) | > 1 µM
CCCC(NC(=O)[C@@H]1CCCN1C(=O)[C@@H](NC(=O)OCC(C)C)C(C)C)C(=O)C(=O)NCC(=O)N[C@@H](CC(=O)O)C(=O)O (some centres unmarked) [Example 18] (Isobutyloxycarbonyl-VP[X2]GD-OH) | > 1 µM
CCCC(NC(=O)[C@@H]1CCCN1C(=O)[C@@H](NC(=O)OCC(C)C)C(C)C)C(=O)C(=O)NCC(=O)N[C@@H](CCC(=O)O)C(=O)O (some centres unmarked) [Example 20] (Isobutyloxycarbonyl-VP[X2]GE-OH) | > 1 µM
CCCC(NC(=O)[C@@H]1CCCN1C(=O)[C@@H](NC(=O)OCC(C)C)C(C)C)C(=O)C(=O)NCC(=O)N1CCCCC1C(=O)O (some centres unmarked) [Example 21] (Isobutyloxycarbonyl-VP[X2]G[ξPip]-OH) | > 1 µM
CCCC(NC(=O)[C@@H]1CCCN1C(=O)[C@@H](NC(=O)OCC(C)C)C(C)C)C(=O)C(=O)NCC(=O)N[C@H](C(=O)O)[C@@H](C)CC (some centres unmarked) [Example 24] (Isobutyloxycarbonyl-VP[X2]GI-OH) | > 1 µM
C=CCOC(=O)CNC(=O)C(=O)C(CCC)NC(=O)[C@@H]1CCCN1C(=O)[C@@H](NC(=O)[C@@H](NC(=O)OC(C)(C)C)C(C)C)C(C)C (some centres unmarked) [Example 33] (Boc-VVP[X2]G-OAll) | > 1 µM
C=CCOC(=O)CNC(=O)C(=O)C(CCC)NC(=O)[C@@H]1CCCN1C(=O)[C@@H](NC(=O)[C@@H](NC(=O)OCC(C)C)C(C)C)C(C)C (some centres unmarked) [Example 34] (Isobutyloxycarbonyl-VVP[X2]G-OAll) | > 1 µM
C=CCOC(=O)CNC(=O)C(=O)C(CCC)NC(=O)[C@@H]1CCCN1C(=O)[C@@H](NC(=O)[C@@H](NC(C)=O)C(C)C)C(C)C (some centres unmarked) [Example 35] (Ac-VVP[X2]G-OAll) | > 1 µM
C=CCOC(=O)CNC(=O)C(=O)C(CCC)NC(=O)[C@@H]1CCCN1C(=O)[C@@H](NC(=O)[C@@H](N)C(C)C)C(C)C (some centres unmarked) [Example 36] (H-VVP[X2]G-OAll) | > 1 µM
CCCC(NC(=O)[C@@H]1CCCN1C(=O)[C@@H](NC(=O)[C@@H](NC(C)=O)C(C)C)C(C)C)C(=O)C(=O)NCC(=O)O (some centres unmarked) [Example 37] (Ac-VVP[X2]G-OH) | > 1 µM
CCCC(NC(=O)[C@@H]1CCCN1C(=O)[C@@H](NC(=O)[C@@H](NC(=O)OCC(C)C)C(C)C)C(C)C)C(=O)C(=O)NCC(=O)O (some centres unmarked) [Example 38] (Isobutyloxycarbonyl-VVP[X2]G-OH) | > 1 µM

Further lines, results first:

Ki | SMILES
> 1 µM | C=CCOC(=O)CNC(=O)C(=O)C(CCC)NC(=O)[C@@H]1CCCN1C(=O)c1ccc(N2CCN(C(=O)c3ccccc3)CC2)cc1 (some centres unmarked) [Example 6]
> 1 µM | C=CCNC(=O)C(=O)[C@H](CCC)NC(=O)[C@@H]1CCCN1C(=O)OC(C)(C)C [Example 7]
> 1 µM | CCCOC(=O)CNC(=O)C(=O)C(CCC)NC(=O)[C@@H]1CCCN1C(=O)[C@@H](NC(=O)OCC(C)C)C(C)C (some centres unmarked) [Example 8]
> 1 µM | CCCC(NC(=O)[C@@H]1CCCN1C(=O)[C@@H](NC(=O)OCC(C)C)C(C)C)C(=O)C(=O)NCC(=O)O (some centres unmarked) [Example 9]
> 1 µM | C=CCOC(=O)CNC(=O)C(=O)C(CCC)NC(=O)[C@@H]1C[C@@H](OC(C)(C)C)CN1C(=O)OCC1c2ccccc2-c2ccccc21 (some centres unmarked) [Example 10]
> 1 µM | CCCC(NC(=O)[C@@H]1CCCN1C(=O)[C@@H](NC(=O)OCC(C)C)C(C)C)C(=O)C(=O)NCC(=O)N1CCC(C(=O)OCC)CC1 (some centres unmarked) [Example 15]
> 1 µM | CCCC(NC(=O)[C@@H]1CCCN1C(=O)[C@@H](NC(=O)OCC(C)C)C(C)C)C(=O)C(=O)NCC(=O)N1CCCC(C(=O)OCC)C1 (some centres unmarked) [Example 16]
> 1 µM | CCCC(NC(=O)[C@@H]1CCCN1C(=O)[C@@H](NC(=O)OCC(C)C)C(C)C)C(=O)C(=O)NCC(=O)N1CCC(C(=O)O)CC1 (some centres unmarked) [Example 22]
> 1 µM | CCCC(NC(=O)[C@@H]1CCCN1C(=O)[C@@H](NC(=O)OCC(C)C)C(C)C)C(=O)C(=O)NCC(=O)N1CCCC(C(=O)O)C1 (some centres unmarked) [Example 23]
> 1 µM | C=CCNC(=O)C(=O)[C@H](CCC)NC(=O)[C@@H]1CCCN1C(=O)[C@@H](NC(=O)/C=C/c1cc(OC)c(OC)c(OC)c1)C(C)C [Example 25]
> 1 µM | C=CCNC(=O)C(=O)[C@H](CCC)NC(=O)[C@@H]1CCCN1C(=O)[C@@H](NC(=O)CCCCCc1ccccc1)C(C)C [Example 26]
> 1 µM | C=CCNC(=O)C(=O)[C@H](CCC)NC(=O)[C@@H]1CCCN1C(=O)[C@@H](NC(=O)C1CCCO1)C(C)C (some centres unmarked) [Example 27]
> 1 µM | C=CCNC(=O)C(=O)[C@H](CCC)NC(=O)[C@@H]1CCCN1C(=O)[C@@H](NC(=O)CC1C(C)C(C(C)=O)C1C)C(C)C (some centres unmarked) [Example 28]
> 1 µM | C=CCNC(=O)C(=O)[C@H](CCC)NC(=O)[C@@H]1CCCN1C(=O)[C@@H](NC(=O)O[C@H]1C[C@@H](C)CC[C@@H]1C(C)C)C(C)C [Example 29]
> 1 µM | C=CCNC(=O)C(=O)[C@H](CCC)NC(=O)[C@@H]1CCCN1C(=O)[C@@H](NC(=O)CC[C@H](NC(=O)OCc1ccccc1)C(=O)OC(C)(C)C)C(C)C [Example 30]
> 1 µM | C=CCNC(=O)C(=O)[C@H](CCC)NC(=O)[C@@H]1CCCN1C(=O)[C@@H](NC(=O)CC[C@H](NC(=O)OCc1ccccc1)C(=O)O)C(C)C [Example 31]
> 1 µM | C=CCNC(=O)C(=O)[C@H](CCC)NC(=O)[C@@H]1CCCN1C(=O)[C@@H](NC(=O)CC[C@H](N)C(=O)O)C(C)C [Example 32]

Same assay, conditions: Table 5; HCV NS3/NS4A protease, spectrophotometric assay, 30° C., pH 6.5; read-out: Ki* Range

SMILES | Ki
CCCC(NC(=O)[C@@H]1[C@@H]2[C@H](CN1C(=O)[C@@H](NC(=O)Nc1ccc(C#N)cc1)C(C)(C)C)C2(C)C)C(=O)C(=O)NCC(=O)N[C@H](C(=O)N(C)C)c1ccccc1 (stereo partly drawn) ({X57-CO}-[Tle][Pro(3R,4S-CMe2)][X2]G[Phg]-NMe2) | 0.101 to 1 µM

Same assay, conditions: Table 6; HCV NS3/NS4A protease, 30° C., pH 6.5; read-out: Ki*

SMILES | Ki
CN(C)C(=O)C(NC(=O)CNC(=O)C(=O)C(CC1CC1)NC(=O)[C@@H]1[C@@H]2[C@H](CN1C(=O)[C@@H](NC(=O)NC1(C)CCCCC1)C(C)(C)C)C2(C)C)c1ccccc1 (stereo partly drawn) ({X88-CO}-[Tle][Pro(3R,4S-CMe2)][X8]G[ξPhg]-NMe2) | 0.001 to 0.1 µM
CN(C)C(=O)[C@@H](NC(=O)CNC(=O)C(=O)C(CC1CC1)NC(=O)[C@@H]1[C@@H]2[C@H](CN1C(=O)[C@@H](NC(=O)N(C)C(C)(C)C)C(C)(C)C)C2(C)C)c1ccccc1 (stereo partly drawn) ({X106-CO}-[Tle][Pro(3R,4S-CMe2)][X8]G[Phg]-NMe2) | 0.001 to 0.1 µM
